pIC50: −log10 of the molar value. The IC50 comes from the fitted curve, where viability falls to half of the control; where the fit passes the top or lowest dose, that dose stands as a limit. For AUC the same curve is integrated over the 256-fold range of doses and scaled to a fraction: 1 means no effect, lower means more sensitive. For some assays here: Any top dose called inferred was derived from the fitted curves, not read from the paper. For some assays here: An entry number marks a drug with two screens in the source, which often give different values.
How the values were obtained:
Assay in all cases: Viability of human cancer cell lines after 72 h of drug (GDSC screen)
Tamoxifen = compound: CC/C(=C(\c1ccccc1)c1ccc(OCCN(C)C)cc1)c1ccccc1 [Tamoxifen]; settings: top dose 5 µM
Protocol: (§1)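 Human cancer cell lines in 384-well plates, medium with 10% serum, drug for 72 h over a 256-fold dose range (nine 2-fold or five 4-fold steps up to the top dose). Adherent lines were fixed and stained with the nucleic acid dye Syto60, suspension lines read with resazurin; signal relative to control wells, capped at 0 and 100%. One two-parameter sigmoid per drug and line, fitted in a mixed model over all curves with the slope shared within a line.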

NSC-87877 = compound: O=S(=O)(O)c1ccc2cc(N=Nc3cc(S(=O)(=O)O)c4cccnc4c3O)ccc2c1 [NSC-87877]; settings: top dose 16 µM; top dose inferred
Protocol: as §1

OSI-930 = compound: O=C(Nc1ccc(OC(F)(F)F)cc1)c1sccc1NCc1ccnc2ccccc12 [OSI-930]; settings: top dose 10.24 µM
Protocol: as §1

BX-912 = compound: O=C(Nc1cccc(Nc2ncc(Br)c(NCCc3cnc[nH]3)n2)c1)N1CCCC1 [BX-912]; settings: top dose 10.24 µM; top dose inferred
Protocol: as §1

Bleomycin = compound: Cc1c(N)nc([C@H](CC(N)=O)NC[C@H](N)C(N)=O)nc1C(=O)N[C@H](C(=O)N[C@H](C)[C@@H](O)[C@H](C)C(=O)N[C@H](C(=O)NCCc1nc(-c2nc(C(=O)NCCC[S+](C)C)cs2)cs1)[C@@H](C)O)[C@@H](OC1OC(CO)C(O)C(O)C1OC1OC(CO)C(O)C(OC(N)=O)C1O)c1cnc[nH]1 [Bleomycin]
Protocol: as §1

LAQ824 = compound: O=C(/C=C/c1ccc(CN(CCO)CCc2c[nH]c3ccccc23)cc1)NO [LAQ824]; settings: top dose 1.024 µM; top dose inferred
Protocol: as §1

VNLG/124 = compound: CCCC(=O)OCc1ccc(OC(=O)/C=C(C)/C=C/C=C(C)/C=C/C2=C(C)CCCC2(C)C)cc1 [VNLG/124]; settings: top dose 5.12 µM; top dose inferred
Protocol: as §1

Elesclomol = compound: CN(NC(=O)CC(=O)NN(C)C(=S)c1ccccc1)C(=S)c1ccccc1 [Elesclomol]; settings: top dose 0.2 µM; top dose inferred
Protocol: as §1

Masitinib = compound: Cc1ccc(NC(=O)c2ccc(CN3CCN(C)CC3)cc2)cc1Nc1nc(-c2cccnc2)cs1 [Masitinib]; settings: top dose 20 µM
Protocol: as §1

[1] = top dose 50 µM, screen: GDSC drug entry 1378, top dose inferred
[2] = top dose 64 µM, screen: GDSC drug entry 190

Cell Line | AUC (Tamoxifen) | pIC50 (Tamoxifen) | AUC (NSC-87877) | pIC50 (NSC-87877) | AUC (OSI-930) | pIC50 (OSI-930) | AUC (BX-912) | pIC50 (BX-912) | AUC (Bleomycin; [1]) | pIC50 (Bleomycin; [1]) | AUC (Bleomycin; [2]) | pIC50 (Bleomycin; [2]) | AUC (LAQ824) | pIC50 (LAQ824) | AUC (VNLG/124) | pIC50 (VNLG/124) | AUC (Elesclomol) | pIC50 (Elesclomol) | AUC (Masitinib) | pIC50 (Masitinib)
HT-1376 (bladder, adherent) | 0.93 | < 5.30 | 0.985 | < 4.80 | 0.976 | < 4.99 | 0.985 | < 4.99 | 0.841 | 4.36 | 0.613 | 5.06 | 0.474 | 7.27 | 0.985 | < 5.29 | 0.817 | 6.86 | 0.984 | < 4.70
HO-1-u-1 (head and neck, adherent) | 0.987 | < 5.30 | 0.984 | < 4.80 | 0.987 | < 4.99 | 0.965 | < 4.99 | 0.171 | 6.48 | 0.595 | 5.14 | 0.572 | 7.00 | 0.986 | < 5.29 | 0.416 | 8.13 | 0.971 | < 4.70
JHH-2 (liver, adherent) | 0.977 | < 5.30 | 0.891 | < 4.80 | 0.937 | < 4.99 | 0.902 | < 4.99 | 0.649 | 5.08 | 0.977 | < 4.19 | 0.72 | 6.55 | 0.983 | < 5.29 | 0.604 | 7.61 | 0.91 | < 4.70
EFM-19 (breast, adherent) | 0.93 | < 5.30 | 0.973 | < 4.80 | 0.976 | < 4.99 | 0.889 | < 4.99 | 0.882 | < 4.30 | 0.139 | > 6.60 | 0.406 | 7.51 | 0.973 | < 5.29 | 0.702 | 7.20 | 0.89 | < 4.70
COLO-679 (melanoma, adherent) | 0.975 | < 5.30 | 0.985 | < 4.80 | 0.978 | < 4.99 | 0.935 | < 4.99 | 0.65 | 5.06 | 0.416 | 5.64 | 0.181 | 8.22 | 0.984 | < 5.29 | 0.537 | 7.80 | 0.954 | < 4.70
SU-DHL-16 (B-cell lymphoma, suspension) | 0.988 | < 5.30 | 0.981 | < 4.80 | 0.738 | 5.61 | 0.518 | 6.15 | 0.975 | < 4.30 | 0.799 | 4.66 | 0.187 | 7.97 | 0.951 | < 5.29 | 0.946 | 6.70 | 0.812 | 5.13
5637 (bladder, adherent) | 0.979 | < 5.30 | 0.987 | < 4.80 | 0.98 | < 4.99 | 0.621 | 5.88 | 0.239 | 6.22 | 0.081 | > 6.60 | 0.359 | 7.57 | 0.989 | < 5.29 | 0.653 | 7.50 | 0.908 | < 4.70
QIMR-WIL (acute myeloid leukaemia, suspension) | 0.976 | < 5.30 | 0.97 | < 4.80 | 0.895 | < 4.99 | 0.483 | 6.24 | 0.657 | 5.08 | 0.232 | 6.16 | 0.252 | 7.89 | 0.855 | 5.41 | 0.738 | 7.24 | 0.815 | 4.98
DMS-79 (small cell lung carcinoma, suspension) | 0.98 | < 5.30 | 0.987 | < 4.80 | 0.965 | < 4.99 | 0.949 | < 4.99 | 0.879 | < 4.30 | 0.936 | < 4.19 | 0.576 | 6.97 | 0.987 | < 5.29 | 0.967 | < 6.70 | 0.958 | < 4.70
CAL-72 (osteosarcoma, adherent) | 0.939 | < 5.30 | 0.959 | < 4.80 | 0.98 | < 4.99 | 0.984 | < 4.99 | 0.657 | 5.03 | 0.94 | < 4.19 | 0.694 | 6.60 | 0.984 | < 5.29 | 0.639 | 7.49 | 0.984 | < 4.70
SNU-423 (liver, adherent) | 0.948 | < 5.30 | 0.977 | < 4.80 | 0.968 | < 4.99 | 0.733 | 5.47 | 0.699 | 4.90 | 0.327 | 5.92 | 0.327 | 7.71 | 0.962 | < 5.29 | 0.538 | 7.79 | 0.869 | < 4.70
ACHN (kidney, adherent) | 0.98 | < 5.30 | 0.971 | < 4.80 | 0.974 | < 4.99 | 0.912 | < 4.99 | 0.099 | > 6.71 | 0.169 | 6.48 | 0.495 | 7.21 | 0.973 | < 5.29 | 0.957 | < 6.70 | 0.957 | < 4.70
EW-13 (Ewing sarcoma, suspension) | 0.982 | < 5.30 | 0.72 | 5.34 | 0.935 | < 4.99 | 0.708 | 5.58 | 0.758 | 4.72 | 0.205 | 6.32 | 0.246 | 7.97 | 0.984 | < 5.29 | 0.704 | 7.30 | 0.793 | 4.99

From the supplement of paper PMC4967469
